Results from article PMC6919601, “Identification of Plasmodium dipeptidyl aminopeptidase allosteric inhibitors by high throughput screening” (PLoS ONE, 2019).
The campaign covered roughly 110,000 compounds. About 230 (0.21%) showed an effect of 50% or more. Some of the results follow.

Biological target: DPAP1 (Plasmodium falciparum, UniProt Q8IIJ9)
Experiment: primary screen, percent inhibition; read by cleavage of a fluorogenic dipeptide substrate; higher = more effect of the substance
Set-up: species or system P. falciparum D10 trophozoite lysates; single well
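Note: 30 min substrate incubation versus DMSO and 10 µM JCP410 controls.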

DPAP1, sequence (Q8IIJ9 whole entry, looked up): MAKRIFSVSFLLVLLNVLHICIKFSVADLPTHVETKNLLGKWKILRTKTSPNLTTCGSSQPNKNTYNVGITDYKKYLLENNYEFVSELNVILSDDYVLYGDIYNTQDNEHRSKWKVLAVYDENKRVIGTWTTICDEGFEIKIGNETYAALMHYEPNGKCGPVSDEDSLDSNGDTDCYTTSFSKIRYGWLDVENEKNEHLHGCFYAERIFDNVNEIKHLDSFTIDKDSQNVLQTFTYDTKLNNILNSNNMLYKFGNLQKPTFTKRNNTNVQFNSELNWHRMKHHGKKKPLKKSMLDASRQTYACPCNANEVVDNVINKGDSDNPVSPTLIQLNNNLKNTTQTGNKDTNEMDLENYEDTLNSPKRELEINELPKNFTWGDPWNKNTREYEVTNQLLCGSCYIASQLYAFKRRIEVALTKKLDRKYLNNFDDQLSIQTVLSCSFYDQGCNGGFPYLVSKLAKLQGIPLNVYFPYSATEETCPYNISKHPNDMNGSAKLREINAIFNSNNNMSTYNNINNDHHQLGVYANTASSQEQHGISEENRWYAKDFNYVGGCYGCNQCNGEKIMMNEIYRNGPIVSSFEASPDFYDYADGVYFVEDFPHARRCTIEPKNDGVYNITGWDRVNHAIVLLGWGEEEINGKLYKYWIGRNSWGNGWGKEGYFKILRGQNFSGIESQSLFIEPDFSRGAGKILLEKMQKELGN

Row | SMILES | % Inhibition @ 10 uM [%]
1 | CCOC(=O)c1c(NC(=S)NC2CCCCC2)sc2c1CCCC2 | -3.77
2 | CCOc1ccc(-c2nc(CSCC(=O)N3CCC(C(N)=O)CC3)c(C)o2)cc1 | 0.718
3 | O=C(Nc1c(-c2ccc(F)cc2)nc2ccccn12)c1cccc(C(F)(F)F)c1 | -4.23
4 | CNC(=O)c1ccc(CSc2nc3ccncc3n2Cc2cccc(C)c2)cc1 | -0.637
5 | O=C(O)C1CCCCC1C(=O)N1CCN(c2ccccc2F)CC1 (stereo not shown) | 3.86
6 | CCN1C(=O)CC(C(=O)Nc2ccc(OC)cc2)S/C1=N\c1cccc(F)c1 (stereo not shown) | 1.52
7 | CCOCCCNC(=O)c1ccc(CNC(=O)c2ccc3c(c2)OCO3)cc1 | -3.78
8 | Cc1cc2c(c(=O)n1Cc1ccccc1)C(c1cccc(Cl)c1)C(C#N)=C(N)O2 (stereo not shown) | -5.01
9 | O=C(CCC(=O)N1CC2CC(C1)c1cccc(=O)n1C2)NC1CCCCC1 (stereo not shown) | 14.3
10 | Cc1cccc(OCC(=O)Nc2ccc(C(=O)c3ccccc3)cc2)c1 | -0.872
11 | COc1ccc(NC(=O)c2ccccc2Br)c(OC)c1 | 2.22
12 | CCC(Sc1nc(=O)cc(N)n1CCc1ccccc1)C(=O)Nc1ccc(Cl)cn1 (stereo not shown) | 17.3
13 | CCn1c(=O)[nH]c2cc(C(=O)Nc3cc(C)cc(C)c3)ccc2c1=O | -1.61
14 | COCCn1c(Cc2cccn2C)nnc1SCC(=O)NCc1ccccc1Cl | 1.1
15 | Cc1c(Br)c([N+](=O)[O-])nn1CC(=O)NC1CCCCC1 | -1.5
16 | CNC(=O)CN(C)S(=O)(=O)c1ccc(OC)c(OC)c1 | 1.03
17 | CC(=O)c1c(C(C)=O)c(C)n(-c2ccc(C)c(C)c2)c1C | 1
18 | Cc1ccc(-c2cccc(C(=O)N[C@@H](CC(C)C)C(=O)NCC#N)c2)s1 | -3.48
19 | Nc1c(Br)cc(Br)c2cccnc12 | -4.96
20 | CC(=O)N[C@H]1[C@H](Oc2ccc(C)c(C)c2)O[C@H](CO)[C@@H](O)[C@@H]1O | 0.815
21 | CCOC(=O)N1CCC(NC(=O)C2=CCN(S(=O)(=O)c3ccc(OC)cc3)CC2)CC1 | 1.93
22 | O=C1NC(c2ccccc2)=N/C1=C\c1ccc(Cl)cc1 | 3.95
23 | Cc1oc2cc(OC(C)C)ccc2c(=O)c1Oc1ccccc1 | 2.37
24 | CC1CCN(Cc2nnc(-c3ccccc3)o2)CC1 | -2.99
25 | Cc1ccc2oc(=O)c3cc(C(=O)N(Cc4ccco4)CC4CCCO4)sc3c2c1 (stereo not shown) | 3.88

Row | SMILES | % Inhibition @ 10 uM [%]
26 | Cc1cc(N2C(=O)C(O)=C(C(=O)c3cccs3)C2c2ccc(Br)cc2)no1 (stereo not shown) | 5.37
27 | COc1ccc(CN2CCN(Cc3ccccc3)CC2)cc1OC | 1.38
28 | CCCCCCSC1=C(C#N)C(c2ccc(O)cc2)CC(=O)N1 (stereo not shown) | -1.08
29 | O=C(Nc1cccnc1)C1CCN(c2ncnc3c2nc2n3CCCCC2)CC1 | 0.483
30 | CN1CCN(C(=O)c2nc(SCc3ccc(F)cc3)ncc2Cl)CC1 | 0.758
31 | Nc1c(C(=O)Nc2ccccc2)sc2nc(-c3ccc(F)cc3)cc(-c3ccccc3)c12 | 7.55
32 | O=C(NCCc1c[nH]c2ccccc12)c1ccco1 | 4.93
33 | CC(C(=O)N1CCC2(CC1)OCCO2)n1sc2ccccc2c1=O (stereo not shown) | -10
34 | CCCN1CCN(C(=O)c2sc3ncn(CC(=O)N4CCCCC4C)c(=O)c3c2C)CC1 (stereo not shown) | -3.93
35 | O=C(CSc1nc2c(c(=O)n1Cc1ccccc1)SCC2)N1CCC(Cc2ccccc2)CC1 | -1.68
36 | CC(C)(CO)C(O)C(=O)NC1CCCCC1 (stereo not shown) | 0.962
37 | O=C(NCc1ccco1)c1ccc(COc2cc(Cl)ccc2Cl)o1 | -1.33
38 | c1nnc2c3c4c(sc3n3cnnc3n12)CCCCC4 | -1.6
39 | Cc1cc(N2CCC(C)CC2)n2nc(C)c(-c3ccc(Cl)cc3)c2n1 | -1.75
40 | O=C1c2ccccc2C(=O)C1c1ccc(C2C(=O)c3ccccc3C2=O)cc1 | 5.28
41 | CCN(CC)S(=O)(=O)c1ccc(/N=C/c2c(C)nn(-c3ccc(F)cc3)c2O)cc1 | 0.851
42 | O=C(NCc1cccc(F)c1)c1c(O)nc2c(c1O)CCCC2 | 4.35
43 | COC(=O)c1coc(C(=O)[C@H](CCc2ccccc2)NC(=O)CCC2CCCCC2)n1 | 7.14
44 | O=C(Nc1cnn(Cc2ccccc2)c1)C1CCCC1 | -1.78
45 | CC(SC12CC3CC(CC(C3)C1)C2)C(=O)O (stereo not shown) | -0.415
46 | Cc1ccc(S(=O)(=O)N(CC(=O)Nc2ccc3c(c2)OCO3)c2ccccc2C)cc1 | -2.83
47 | O=C(Nc1ccccc1C(=O)O)c1cccc(S(=O)(=O)Nc2ccccc2)c1 | 4.8
48 | c1ccc(-c2cc(NCC3CC3)n3cnnc3n2)cc1 | -4.39
49 | CCCN1C(=S)NC2c3ccccc3OC1(C)C2C (stereo not shown) | -8.16
